US10196447B2, “Anti-vascular endothelial growth factor receptor 2 (VEGFR2) antibody and methods of use thereof for detecting VEGFR2 and for inhibiting tumor growth, tumor angiogenesis and/or inducing cancer cell cytotoxicity” (Academia Sinica, priority 2015, dated 2019)

How the values were obtained:
[1] = tested on: HUVECs; assay: HUVEC proliferation assay (MTT); type: cell-based, human
Description: A total of 1×10^4 HUVECs were seeded onto 96-well plates overnight. The cells were then starved in serum-free EBM-2 overnight. Subsequently, 8 μg/ml of the selected scFv, together with 40 ng/ml VEGF in low-serum EBM-2 (0.2%), was added to the wells, and then incubated for 48 hours. Cell proliferation was assessed using MTT reagent (Invitrogen), according to the manufacturer's instructions.

[2] = tested on: HUVECs; assay: Tube formation assay (capillary structure formation on […]); type: cell-based, human; details: 40 ng/ml VEGF-A; compared with IMC-1121B
Description: (A) Capillary structure formation assays were performed using […]®-coated μ-Slides. HUVECs (4×10^4 cells per well) were incubated with 0.2% FBS and treated with 40 ng/ml VEGF-A, or 40 ng/ml VEGF-A together with NHIgG. […] Tubular structures were observed under phase contrast, and the relative sprout length (lower panel) and branching points (upper panel) were quantitatively measured with ImageJ software. All data were obtained from three independent experiments. […] Total protein was prepared from treated HUVECs and examined by Western blot analysis. α-tubulin was used as a loading control.
[…]® (BD Biosciences) was thawed at 4° C. overnight, and 10 μl […]® was added to each well of a pre-chilled μ-Slide Angiogenesis (Ibidi); the slide was then incubated at 37° C. for 15 minutes. Starved HUVECs (4×10^4 cells) were added to EBM-2 containing 0.2% serum with or without 40 ng/ml VEGF-A and anti-VEGFR2 antibodies. After 24 hours of incubation, endothelial cell tube formation was assessed with an OLYMPUS inverted microscope and digital camera (OLYMPUS, DP-12). Tubular lengths and branching points were quantitatively evaluated with ImageJ software. Inhibition percentage by antibodies was expressed as a percentage of that in VEGF-A-treated wells without competitor.

[3] = tested on: HL-60 leukemia xenografts; assay: HL-60 leukemia xenograft model; type: in vivo, NSG mice
Description: For systemic leukemia engraftment studies, NOD/SCID/IL2Rγ−/− (NSG) mice were obtained from the Animal Center of the Institute of Cellular and Organismic Biology, Academia Sinica. Six-week old females were intravenously injected with 5×10^6 HL-60 cells through the tail vein. Animals were monitored daily for general health, and body weights were measured twice weekly. […] Mice were observed daily for signs of toxicity, and the survival times were recorded. At the end-point of treatment, the visceral organs of each mouse were removed and fixed for further histological examination.
Tumors and indicated organs were dissected from mice and fixed in 4% paraformaldehyde overnight. Fixation and processing of specimens were performed in accordance with standard procedures. The specimens were embedded in paraffin and cut into […] sections. Rehydrated paraffin-embedded tissue sections were stained with Mayer's hematoxylin solution (Wako) for 5 minutes and washed with water for 1-2 minutes. The slides were then stained with eosin solution (Wako) for 10 minutes. Tissues were visualized with Tissue Gnostics microscopes.

[4] = biological target: murine VEGFR2 protein (Mus musculus, UniProt P35918, DEL223-227); assay: Cross-reactivity with murine VEGFR2; type: binding
[5] = tested on: PC-3 cells; assay: VEGF-A-induced cellular activity in PC-3 cells (Transwell invasion, colony formation, wound healing); type: cell-based, human; details: 100 ng/ml VEGF-A; 10 μg/ml antibody
Description: (A) Transwell assays were carried out to examine the invasion capacity of PC-3 cells subjected to the indicated treatments. Upper panel: Giemsa staining of invasive cells. 100× magnification; n=3 in each group; scale bar, 150 μm. […] The plate was incubated for 7 days to allow colony formation. Cell colonies were visualized by crystal violet staining. The relative number of colonies was calculated in each well after elution of crystal violet solution. n=3 in each group. (C) Wound healing assay. […] Images were taken after 0, 16, and 36 hours of incubation. Scale bar, 150 μm. n=3 in each group. Error bar, SE.

[6] = tested on: VEGFR2 on the cell surface of HUVEC; assay: Flow cytometry binding to HUVECs; type: cell-based, human; details: FACS; antibody 0.1 μg/ml
Description: About 1×10^4 HUVEC were incubated with the selected anti-VEGFR2 phage clones at 4° C. for 1 hour in FACS buffer (PBS containing 1% fetal bovine serum). After the cells were washed with FACS buffer, they were first incubated with mouse anti-M13 phage Ab for 1 hr at 4° C., and then with R-phycoerythrin-conjugated goat anti-mouse IgG (Jackson Immuno Research) for 30 min at 4° C. Flow cytometry was performed with a FACSCantoII (BD), and emission fluorescence intensity was measured with FACS Diva software (BD) to quantitatively compare binding affinities.

[7] = tested on: VEGFR2 signaling pathway; assay: Western blot of VEGF-A-induced phosphorylation in HUVECs; type: cell-based, human; details: 100 nM antibody
Description: Western blots were pertbrmed using standard protocols, as previously described. The primary antibodies were purchased from Cell Signaling Technology and used at a 1,000-fold dilution for protein detection; the antibodies used are as follows: anti-VEGFR2 (clone 55B11), anti-phospho-VEGFR2 (Tyr1175; clone 19A10), anti-FAK, anti-phospho-FAK (Tyr397; cloneD20B1), anti-p42/44 MAPK, anti-phospho-p42/44 MAPK (Thr202/Tyr204; cloneD13.14.4E), anti-Akt, and anti-phospho-Akt (Ser473).

[8] = tested on: HUVECs; assay: HUVEC migration (wound-healing assay); type: cell-based, human
[9] = biological target: T1, VEGFR2-Fc (Homo sapiens, UniProt P35968); assay: Binding kinetics by surface plasmon resonance (BIACORE T100); details: ratio of Kd values
T1 construct: purchased R&D Systems
Description: The affinity and kinetics of anti-VEGFR2 antibodies were measured by surface plasmon resonance in a BIACORE T100™ (GE healthcare). VEGFR2-Fc protein was coupled to an EDC- and NHS-activated CM5 sensor chip in a BIACORE flow cell, and then blocked with ethanolamine according to the manufacturer's directions. Associated and dissociated phases were monitored under continuous flow of 30 μl/min, using antibody concentrations ranging from 0.1 to 100 nM for 5 min. Regeneration was performed by injection of regenerate buffer (0.2 M NaCl, 10 mM glycine, pH 2.7). To determine binding constants, the sensorgrams were fit globally to a sample 1:1 interaction model using BIAevaluation software (GE healthcare).

[10] = tested on: PC-3 xenografts; assay: PC-3 human prostate cancer xenograft model; type: in vivo, NOD/SCID mice
Description: Procedures involving animals and their care were conducted according to the guidelines of the Academia Sinica Institutional Animal Care and Utilization Committee in compliance with national and international laws and policies. Non-obese diabetic-severe combined immunodeficiency (NOD/SCID) mice were purchased from the National Laboratory Animal Center (Taiwan). The human prostate cancer xenograft tumor model was developed by subcutaneously injecting 2×10^6 PC-3 cells into the dorsal flank of a six-week old male mouse. Animals were monitored daily for general health, and body weights were measured twice weekly. Tumor size was measured with slide calipers and calculated as length×width^2×0.52. […] An antibody dose of 20 mg/kg was injected twice a week for four weeks. For combination therapy, docetaxel (ScinoPharm Taiwan) was also intravenously administered at a dose of 5 mg/kg once a week for three weeks. At the end of the experiment, tumor tissue and visceral organs were removed and fixed for histological analysis.
For tumor blood vessel studies, samples were fixed in OCT. Frozen blocks were cut into 50 μm sections, and frozen tumor tissue sections were fixed with 1% paraformaldehyde, permeabilized with 0.1% TRITON™-X 100, blocked with normal horse serum (Vector), and then incubated for 1 hour at room temperature (RT) with a 1:100 dilution of the primary antibody (rat anti-mouse CD31 (PECAM-1); BD Bioscience). Subsequently, the tissue sections were incubated with Alexa 549-conjugated goat anti-rat antibody (Invitrogen) at room temperature for 1 hour. Nuclei were stained with DAPI, and sections were then mounted with fluorescent mounting solution. Immunofluorescent images were acquired using a Zeiss Axiovert 200M microscope. Positive areas of CD31 endothelial cells were quantified by pixel area counting and normalized with DAPI staining using ImageJ software under low power magnification.
The frozen tumor tissue sections were fixed with 1% paratbrmaldehyde and permeabilized with 0.1% TRITON™-X 100, before being incubated with terminal deoxynucleotidyltransferase-mediated dUTP nick end labeling reaction mixture (Roche Diagnostics) at 37° C. for 1 hour. After washing three times with PBS, the slides were incubated with FITC-anti-DIG antibody (1:2000) and DAPI (1:500). Slides were mounted with mounting solution and visualized under a fluorescent microscope. Slides were independently examined by three individuals. Areas with TUNEL-positive cells were quantified by pixel area counting, and normalized to DAPI staining using ImageJ software.

[11] = 20 mg/kg i.v. twice weekly from day 3
[12] = end of treatment, compared with IMC-1121B

B1: anti-VEGFR2-AF hAb: fully human antibody: R2S12-AF scFv coding sequences engineered into a human IgG1 backbone (antibody)
heavy: QVNLRESGGGLVKPGGSLRLSCAASGFTFGSYTMNWVRQAPGKGLEWVASITSGSSYIFYTDSVKGRFTISRDNSRSSLFLQMNSLRAEDTAIYYCARGSASAFDIWGQGTMVTVSS[in this place human IgG1 constant region]
light: DIQMTQSPSSLSASVGDRVTITCKASDDIINYLNWYQQKPGEAPKLLIYDASILETGVPSRFSGSGSGTDFTFTISSLQPEDIATYYCQQLDDIPITFGGGTKLEIK
modifications: left off: a dimerising Fc or GST
- VEGF-A-induced HUVEC proliferation [1]: suppressed
- suppression of VEGF-A-triggered capillary-like structures (tubule length and branch point number) [2]: more effective than IMC-1121B
- median survival [3, 11]: 53 days
- survival time [3, 11]: 70 days
- average ovarian volume ([3]; compared with the IMC-1121B-treated group): significantly smaller
- Kaplan-Meier survival compared with the IMC-1121B group ([3]; log-rank test): significantly prolonged
- histopathological phenotype of ovaries (H&E) ([3]; n=9): fewer blood vessels, and retained some primary oocytes
- lymph nodes with leukemia infiltration ([3]; n=9 per group): one of nine
- cross-reaction / binding to murine VEGFR2 [4]: not
- VEGF-A-induced cellular activities of PC-3 cells [5]: suppressed
- binding of antibody to cell-surface VEGFR2 on HUVECs [6]: stronger binding than IMC-1121B
- FAK phosphorylation [7]: only marginally reduced
- VEGF-A-induced phosphorylation of VEGFR-2 and downstream signaling molecules (Akt, MAPK, FAK) ([7]; 10 min): efficiently diminished
- levels of phosphorylated VEGFR2, Akt, and MAPK ([7]; compared with IMC-1121B): lower than those in IMC-1121B-treated group
- VEGF-A-induced HUVEC migration [8]: suppressed
- increase in binding affinity to VEGFR2 over parental clone anti-VEGFR2 hAb [9]: 8 fold
- tumor growth reduction ([10]; by day 38, antibody 20 mg/kg i.v. twice a week, docetaxel 5 mg/kg i.v. once a week): 52%
- changes in body weight during the treatment period ([10]; compared to the NHIgG group or docetaxel alone): no significant changes
- enhancement of cancer cell apoptosis (TUNEL assay) [10, 12]: superior to IMC-1121B
- reduction of tumor vascular density (anti-CD31 staining) [10, 12]: superior to IMC-1121B
- docetaxel-induced toxicity (body weight as surrogate) ([10]; in combination with docetaxel): do not enhance
